# Assay results as given in PubChem BioAssay AID938 (National Center for Advancing Translational Sciences (NCATS), 2007).
# The campaign covered roughly 73,000 compounds. About 1,800 (2.5%) were called active. Inconclusive means that the source gave no clear call. Such entries were picked first, then a sample of the others. The call rests on the fitted dose curve; in most records, active means well fitted activation curve with a large enough effect; inconclusive means small, poorly fitted or top-dose-only effect; inactive means no such curve, though single readings can be large or run the other way. No potency is given beside an inconclusive call; the fits are too rough.
# Assay: qHTS Assay for Agonists of the Thyroid Stimulating Hormone Receptor: Activators of Intracellular cAMP Concentrations in Parental HEK 293; further: nearly all actives have a fitted effect of over 55% in size
# Details: parental HEK293 CNG cAMP sensor, membrane potential fluorescence; series mostly up to 57.1 µM
# In short: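 Parental HEK 293 cells stably expressing a modified CNG channel (no TSHR) report cAMP rise as membrane depolarization. Membrane potential dye with 100 uM RO 20-1724 was loaded for 60 min at room temperature, then compound added for 30 min; fluorescence read at 590 nm.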
# Potency means the concentration at half of the fitted maximal effect; tags describe the fitted curve by direction and shape.
row,Structure (SMILES),Potency
1,CCOC(=O)N1CCN(C(=O)CCn2nc(-c3ccccc3)ccc2=O)CC1,inactive
2,COc1ccc(-n2nc(C(=O)NCC(=O)NCc3ccco3)c3ccccc3c2=O)cc1Cl,"inconclusive [activator, partial curve]"
3,O=C(Cn1cc2c(n1)CCCC2)NC1CCCCCC1,"inconclusive [activator, single point]"
4,CCOc1ccc(C2C=C(c3ccc(C)cc3)Nc3nnnn32)cc1 (stereo not given),inactive
5,CN(C)Cc1ccccc1-c1nc(N2CCOCC2)c2ccccc2n1,active: 7.94 µM
6,CCOCCCNC(=O)CN1CCN(Cc2ccccc2C)C1=O,"inconclusive [activator, single point]"
7,C/C(N)=C(/C#N)C(=O)COC(=O)COc1ccc(Cl)cc1,"inconclusive [activator, single point]"
8,C=CCC(O)CC1C2C(CC(O)CC=C)C3C1C3C2OC(C)(C)C (stereo not given),"inconclusive [activator, single point]"
9,Cc1cc(/C=N/n2cnnc2)c(C)n1-c1cc(Cl)ccc1Cl,"inconclusive [activator, partial curve]"
10,CCCCCCn1c(N2CCN(c3cccc(Cl)c3)CC2)nc2c1c(=O)[nH]c(=O)n2C,"inconclusive [activator, single point]"
11,O=S(=O)(Cc1ccccc1Cl)N1CCN(Cc2ccc3c(c2)OCO3)CC1,"inconclusive [activator, single point]"
12,O=C(CSc1nnc(-c2ccoc2)o1)N1CCOCC1,inactive
13,COc1cccc2cc(-c3nnc(SCC(=O)Nc4cc(C(F)(F)F)ccc4Cl)n3N)oc12,active: 25.1 µM
14,COc1ccc(CNC(=O)[C@H]2C[C@@H]2[C@H](NP(=O)(c2ccccc2)c2ccccc2)c2ccccc2)cc1OC,"inconclusive [activator, single point]"
15,Cc1cc(C(c2nnnn2Cc2ccccc2)N2CCOCC2)c(C)n1-c1ccc2c(c1)OCO2 (stereo not given),"inconclusive [activator, partial curve]"
16,Cc1ccc(CNC(=O)CS(=O)Cc2nc(-c3ccccc3C)oc2C)cc1 (stereo not given),"inconclusive [activator, single point]"
17,CC(=O)[C@H]1CC[C@@H]2[C@H]3CC=C4C[C@@H](O)CC[C@]4(C)[C@H]3CC[C@]12C,inactive
18,Nc1n[nH]c(S(=O)(=O)CCCc2ccccc2)n1,"inconclusive [activator, single point]"
19,Cc1c(CCC(=O)O)c(=O)oc2cc(O)ccc12,"inconclusive [activator, single point]"
20,O=C(CN1CCN(Cc2ccccc2Cl)C1=O)NC1CCCCCC1,"inconclusive [activator, partial curve]"
21,CCn1c(COc2cccc(OC)c2)nnc1SCC(=O)Nc1ccccc1C(=O)OC,active: 15.8 µM
22,Cc1nn(C(C)C(=O)N2CCN(c3ccccn3)CC2)c(=O)c2cc3occc3n12 (stereo not given),"inconclusive [activator, single point]"
23,CC(=O)Nc1cccc(NC(=O)c2oc3ccccc3c2C)c1,"inconclusive [activator, single point]"

row,Structure (SMILES),Potency
1,Cc1c(S(=O)(=O)Nc2ccc3c(c2)OCCO3)c(=O)n(C)c(=O)n1C,inactive
2,COc1ccc2cc(C#N)c(NC(C)C)nc2c1,inactive
3,C=C(C)CSc1nnc(-c2cccc(S(=O)(=O)N(C)C)c2)n1-c1cc(OC)ccc1OC,active: 12.6 µM
4,COc1cccc(-c2cc(C(F)(F)F)nc(NCc3ccco3)n2)c1,"inconclusive [activator, partial curve]"
5,CCCCn1c(SCC(=O)c2ccc3c(c2)OCCO3)nnc1-c1ccco1,"inconclusive [activator, single point]"
6,CNCC[C@@H](Oc1ccccc1C)c1ccccc1,active: 31.6 µM
7,c1ccc(CN2CCC3(CCCc4ccccc43)CC2)cc1,"inconclusive [activator, single point]"
8,CCCOc1ccc(C2C(C(=O)OC)=CN(CCOC)C=C2C(=O)OC)cc1,active: 25.1 µM
9,Cc1c(C)n(C(=O)CN2CCC(C(N)=O)CC2)c2ccccc12,inactive
10,C=CCc1cccc(CNc2nc3ccccc3n2CCN2CCOCC2)c1O,inactive
11,Cn1nnc2c(N3CCCCC3)nccc21,"inconclusive [activator, partial curve]"
12,CCOC(=O)CSc1nnc(-c2ccoc2C)n1-c1ccc(OCC)cc1,"inconclusive [activator, single point]"
13,CCN1CCN(C(=O)Cn2ncc3c2-c2ccccc2OC3)CC1,"inconclusive [activator, single point]"
14,CC1CC(C)CN(CCCNC(=O)C2CCN(S(=O)(=O)N3CCCCC3)CC2)C1 (stereo not given),"inconclusive [activator, single point]"
15,O=C(Nc1ccccc1C(=O)NCc1ccc(Cl)cc1)c1ccco1,"inconclusive [activator, partial curve, poor fit]"
16,O=c1c2ccccc2nc(-c2ccco2)n1Cc1ccccc1,"inconclusive [activator, single point]"
17,COC(=O)c1ccc2c(c1)N(Cc1nc(-c3cccc(Cl)c3)oc1C)C(=O)C1CCCN21 (stereo not given),inactive
18,CCCCOc1ccc(OCCCC)c2c1NC1(N2)C(=O)N(C(C)=O)c2ccccc21,inactive
19,CCOc1ccc2[nH]c(=O)c(CN(Cc3cccs3)C(CC)c3nnnn3C(C)(C)CC)cc2c1 (stereo not given),"inconclusive [activator, single point]"
20,Cc1cc2c(=O)n(C)c(SCC(=O)c3cc4ccccc4o3)nc2s1,"inconclusive [activator, single point]"
21,CCc1nc2ccccc2c(C(=O)OCC(=O)NCCCN2CCCC2=O)c1C,"inconclusive [activator, single point]"
22,O=C(O)c1c2c(nc3ccc(S(=O)(=O)N4CCC(C(=O)NC5CCCC5)CC4)cc13)CCCCC2,"inconclusive [activator, single point]"
